In PubChem BioAssay AID2025 (NMMLSC, 2009):
Screen size: about 330,000 compounds; about 980 (0.3%) were called active.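 The calls were made as follows: active = percent response vs DMSO below 50%; inconclusive = fewer than 70 events counted for the yeast strain; inactive = the rest.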 Where a structure was tested more than once in an assay, its records may differ in their call. Certain results were filed several times, with different values. Only these are listed. The source may hold further records. Results that share an entry repeat one measurement across runs, samples, wells, individuals or studies. Marks in square brackets tell the records apart. The letters are not those of the source and start again with each entry.

Experiment: RPL19A-GFP expression modulators in yeast, primary screen, cell-based, S. cerevisiae, multiplex flow cytometry, MLPCN (AID 2025);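 also: median channel GFP fluorescence of the barcoded RPL19A-GFP strain; ratio of sample median GFP to plate DMSO average so 100% = DMSO; lower means less RPL19A-GFP as with rapamycin TOR inhibition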
Conditions: S. cerevisiae RPL19A-GFP strain, 3 h, at 10 µM, stronger effect = lower value

| Compound | percent response vs DMSO |
| --- | --- |
| O=C(Cn1c[n+](CC(=O)c2ccc([N+](=O)[O-])cc2)cn1)c1ccc([N+](=O)[O-])cc1 | inactive: 93% [sample A] and active: 47.7% [may fluoresce violet] [sample B] |
